Measured values reported in paper PMC4336329 (PLoS ONE, 2015).
The whole screen tested about 310,000 compounds, of which about 2,200 (0.71%) showed an effect of 50% or more. Effects have a minus sign here. This is one part of the list.

target: human ether-à-go-go-related gene (hERG) potassium channel (human, UniProt Q12809); assay: primary screen, population patch clamp on CHO cells stably expressing hERG
Sequence (Q12809 whole entry, looked up): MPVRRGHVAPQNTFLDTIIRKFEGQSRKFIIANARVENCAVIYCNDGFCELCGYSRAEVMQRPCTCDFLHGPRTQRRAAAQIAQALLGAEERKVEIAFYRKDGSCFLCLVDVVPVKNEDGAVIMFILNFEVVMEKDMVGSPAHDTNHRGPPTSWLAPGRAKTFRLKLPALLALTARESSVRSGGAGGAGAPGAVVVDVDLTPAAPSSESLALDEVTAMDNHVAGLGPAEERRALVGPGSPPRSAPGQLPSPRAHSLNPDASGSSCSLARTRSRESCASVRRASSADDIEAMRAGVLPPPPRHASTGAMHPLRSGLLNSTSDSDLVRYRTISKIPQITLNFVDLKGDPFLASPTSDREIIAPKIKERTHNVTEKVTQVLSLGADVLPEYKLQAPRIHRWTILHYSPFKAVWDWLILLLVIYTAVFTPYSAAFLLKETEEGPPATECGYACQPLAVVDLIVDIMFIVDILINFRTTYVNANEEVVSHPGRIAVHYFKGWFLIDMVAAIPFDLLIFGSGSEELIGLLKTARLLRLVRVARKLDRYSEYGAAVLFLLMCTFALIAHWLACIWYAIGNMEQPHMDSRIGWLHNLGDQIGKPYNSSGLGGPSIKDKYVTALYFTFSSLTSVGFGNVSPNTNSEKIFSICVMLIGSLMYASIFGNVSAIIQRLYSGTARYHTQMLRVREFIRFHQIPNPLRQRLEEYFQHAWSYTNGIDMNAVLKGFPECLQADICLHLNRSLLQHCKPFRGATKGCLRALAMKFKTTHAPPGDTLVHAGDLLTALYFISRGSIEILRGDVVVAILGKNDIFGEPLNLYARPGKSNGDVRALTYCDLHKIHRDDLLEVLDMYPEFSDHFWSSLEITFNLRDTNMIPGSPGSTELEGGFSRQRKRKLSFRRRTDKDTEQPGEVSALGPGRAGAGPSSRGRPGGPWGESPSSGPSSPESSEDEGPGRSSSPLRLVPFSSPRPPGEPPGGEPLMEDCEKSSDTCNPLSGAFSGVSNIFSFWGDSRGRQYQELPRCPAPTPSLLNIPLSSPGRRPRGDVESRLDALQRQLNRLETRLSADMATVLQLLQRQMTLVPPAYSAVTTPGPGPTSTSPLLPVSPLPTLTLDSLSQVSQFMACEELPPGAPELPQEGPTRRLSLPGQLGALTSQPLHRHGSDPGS

| Structure (SMILES) | hERG current change (%, negative = inhibition) at 1uM |
| --- | --- |
| O=C(CCc1nc2cccnc2n1Cc1ccccc1)N1CCOCC1 | 1.69% |
| O=C(CCCN1C(=O)/C(=C/c2cccs2)SC1=S)Nc1cccc(C(=O)O)c1 | 6.36% |
| CCOc1ccccc1N(C(=O)c1ccco1)C(C(=O)NC1CCCC1)c1cccs1 (stereo not shown) | -3.75% |
| Cc1ccc2c(COC(=O)CC3Sc4ccccc4NC3=O)cc(=O)oc2c1C (stereo not shown) | 21.3% |
| O=C(c1ccc(C(=O)N2CCCc3ccccc32)nc1)N1CCCc2ccccc21 | 3.94% |
| CC1=C(C#N)C(NC(=O)C2CCCCC2)(C(F)(F)F)C(=O)N1 (stereo not shown) | 15.8% |
| COc1ccc(/C=N/NC(=O)c2ccc(Cl)cc2Cl)cc1COC(C)=O | 10.9% |
| CCOC(=O)N1CCC(NC(=O)CN2C(=O)CCSc3ccccc32)CC1 | -0.183% |
| CCNc1nc(NCC)nc(N(C)/N=C/c2ccco2)n1 | 5.61% |
| COc1ccc(NC(=O)CN(C)C(=O)c2cccc(S(=O)(=O)N3CCN(c4ccccc4)CC3)c2)cc1 | 12.4% |
| O=C(CN1CCN(CC(=O)Nc2ccccc2Cl)CC1)Nc1ccc(F)c(F)c1 | -74% |
| CC(=O)c1cccc(N2Cc3ccccc3C2=NC(=O)CCl)c1 | 14.2% |
| CC(Oc1ccc(Cl)cc1)C(=O)N1CCCc2ccccc21 (stereo not shown) | 8.12% |
| CCN(CC)S(=O)(=O)c1ccc(S(=O)(=O)NCc2cccs2)cc1 | 5.97% |
| CCCCNc1ncnc2c1cnn2-c1ccc(C)cc1C | 4.09% |
| Clc1nccnc1N/N=C/c1ccc(Br)cc1 | -14% |
| CS(=O)(=O)N(Cc1ccc(F)cc1)Cc1nc2ccccc2c(=O)[nH]1 | 6.16% |
| O=C(O)CN1C(=O)NC2(CCOc3ccccc32)C1=O (stereo not shown) | 12.7% |
| COc1cccc(Cn2cccc(NC(=O)NCc3ccccc3)c2=O)c1 | 4.5% |
| Cc1ccc(NC(=O)C(Cc2ccccc2)n2cccc2)cc1 (stereo not shown) | 14.5% |
| c1ccc(CCCN2CCN(c3ccccn3)CC2)cc1 | -6.2% |
| Cc1c(Cl)cccc1Nc1nc(NCCO)c2ccccc2n1.Cl | 5% |

| Structure (SMILES) | hERG current change (%, negative = inhibition) at 1uM |
| --- | --- |
| COc1ccc(CN(C)C(=O)COC(=O)c2ccc3c(c2)OCO3)cc1OC | 6.77% |
| CSc1c(CC(=O)Nc2ccccc2)n(Cc2ccccc2)c2ccccc12 | 11.6% |
| CCC(=O)N(CCC1(C(C)C)CCOC(C)(C)C1)Cc1ccco1 (stereo not shown) | 15.3% |
| Cc1ccc(C(=O)Oc2cccc(-n3cnnn3)c2)cc1 | 7.58% |
| COc1ccc(NC(=O)CN2CCCN(S(=O)(=O)c3ccc(F)cc3)CC2)c(OC)c1 | -8.18% |
| COc1cccc(C2/C(=C(/O)c3ccc4c(c3)CC(C)O4)C(=O)C(=O)N2CCCn2ccnc2)c1 (stereo not shown) | 4.78% |
| CC(/C=C/c1ccccc1)=N/NC(=O)c1cnccn1 | 10.6% |
| Cc1ccc(C(=O)CSc2nnc(-c3ccccc3)o2)cc1 | 4.65% |
| COC(=O)c1ccc(NC(=O)c2ccccc2SC)cc1 | -4.31% |
| O=C(CSc1nc2ccccc2[nH]1)N1CCN(c2ccc(F)cc2)CC1 | -20% |
| CC(C)CC(=O)NC(=S)N1CCCCCC1 | 11.8% |
| COc1ccc(N2CCN(C(=O)c3cc(-c4ccc(F)cc4)[nH]c3C)CC2)cc1 | -16.6% |
| Cc1ccccc1-c1cc(C(=O)Nc2nc3c(s2)CCCC3)c2ccccc2n1 | 12.1% |
| CCCN(CC(=O)Nc1ccc(Cl)cc1Cl)C(=O)/C=C/c1cccc([N+](=O)[O-])c1 | 7.36% |
| C=CCn1c(=O)c(C#N)cc2c(=O)n3ccccc3nc21 | 9.4% |
| O=C(O)CCc1nn2cnc3sc4c(c3c2nc1=O)CCCC4 | 0.675% |
| CN(C(=O)Cn1c(Cl)nc2c1c(=O)n(C)c(=O)n2C)C1CCS(=O)(=O)C1 (stereo not shown) | 18.8% |
| Cc1ccc(NC(=O)CSC2=NN3CCCC(=O)N=C3S2)c(C)c1 | 0.842% |
| O=C(O)CCN1C(=O)c2ccccc2C1=O | 19.2% |
| CCN(CC)CCn1c(NCc2cccc(OC)c2OC)nc2ccccc21 | -9.21% |
| Cc1c(C(=O)OCC(=O)N2CC(=O)Nc3ccccc32)oc2ccccc12 | 23.9% |
| Cc1ccc(C)c(OCC(O)CNC2CCCC2)c1.Cl (stereo not shown) | 16% |

| Structure (SMILES) | hERG current change (%, negative = inhibition) at 1uM |
| --- | --- |
| Cc1ccc(S(=O)(=O)N2CCC(C(=O)NCC3CC3)CC2)cc1 | 12.7% |
| O=C(Nc1ccc(Br)cc1F)c1ccc2c(c1)OCCO2 | 12.1% |
| CCCN(CC(=O)Nc1ccccc1OC)C(=O)c1cc(S(=O)(=O)NCc2ccccc2)ccc1C | 5.6% |
| CC(=O)c1cccc(NC(=O)C2CCCN(S(=O)(=O)c3cccc4nonc34)C2)c1 (stereo not shown) | 14.1% |
| O=C(NC1CCCc2c1cnn2-c1ccccc1F)c1ccccn1 (stereo not shown) | 6.83% |
| Cc1nccn1CC(O)Cn1c2ccccc2c2ccccc21 (stereo not shown) | 4.28% |
| Cc1cc2[nH]c3ccccc3c2cn1 | 3.72% |
| CCN1CCN(c2ccc([N+](=O)[O-])cc2C#N)CC1 | -49.8% |
| O=C(Nc1ccc(S(=O)(=O)Nc2ncccn2)cc1)c1nn(Cc2ccccc2)c(=O)c2ccccc12 | 12.9% |
| O=C(O)c1ccc2c(c1)nnn2C1CCCCC1 | 8.07% |
| Brc1nnc2n1-c1ccccc1Sc1ccccc1-2 | -13.6% |
| CCOc1cc(N2CCOCC2)c(OCC)cc1NC(=O)CN1C(=O)C2C3C=CC(C3)C2C1=O (stereo not shown) | 11.9% |
| COc1cc(/C=N/NC(=O)c2cccnc2)ccc1OS(=O)(=O)c1cc(C)ccc1C | 5.73% |
| COc1ccc(NC(=O)CSc2ccc3nnc(-c4cccnc4)n3n2)cc1OC | 5.21% |
| COc1cc(/C(C)=N/N2CCOCC2)cc(OC)c1OC | 13.6% |
| O=C(Nc1ccc(-n2cnnn2)cc1)C1CCCCC1 | 4.56% |
| O=C(CSCc1nc2c(nnn2Cc2ccc(F)cc2)c(=O)[nH]1)Nc1c(Cl)cc(Cl)cc1Cl | 11.6% |
| Cc1nnc(SCC(=O)N(CCC#N)c2ccc3c(c2)OCCO3)s1 | 6.07% |
| Cc1cc(=O)[nH]c(NCc2ccc(Cl)cc2)n1 | 14.1% |
| Cc1cc(C)n(-c2nc3sc4c(c3c3nnc(SC(C)C)n23)CC(C)(C)OC4)n1 | 4.62% |
| COc1cccc(NC(=O)C2CCN(S(=O)(=O)c3ccc4[nH]c(=O)ccc4c3)CC2)c1 | -9.04% |
| Cc1ccc2cc(CN(Cc3ccc(F)cc3)Cc3nnnn3C3CCCC3)c(=O)[nH]c2c1 | 8.66% |

| Structure (SMILES) | hERG current change (%, negative = inhibition) at 1uM |
| --- | --- |
| O=C(Nc1cccc(F)c1)C1CCN(C(=O)c2ccc(Cl)cc2)CC1 | -30.5% |
| O=C(c1ccco1)N1CCN(C(=S)NCc2ccc(F)cc2)CC1 | -3.27% |
| O=C(O)CN1C(=O)C2C3CC(C2C1=O)C1C(c2ccc(Cl)cc2)c2sc(=O)[nH]c2SC31 (stereo not shown) | 4.08% |
| CC1=C(C(=O)OCc2ccccc2)C(c2cccs2)NC(=O)N1CCCC(=O)O (stereo not shown) | 15.5% |
| O=C(Nc1nc2c(F)cc(F)cc2s1)C1CC1 | 13.1% |
| CCc1nnc(NC(=O)c2ccncc2)s1 | 9.59% |
| Cc1ccc(NC(=O)N2CCC(c3nc4c(nnn4Cc4c(F)cccc4Cl)c(=O)[nH]3)CC2)cc1 | 8.47% |
| COc1cccc(-c2nc3c(c(SCC(=O)N4CCOCC4)n2)Cc2c(CO)cnc(C)c2O3)c1 | 5.11% |
| Cc1c(C(=O)Nc2ccc3c4c(cccc24)CC3)cccc1[N+](=O)[O-] | 10.3% |
| COc1ccc(CCNS(=O)(=O)c2cn(C)nc2C)cc1 | 19.3% |
| Cc1ccccc1NC(=O)c1sc(NC(=O)COc2ccccc2)c(C#N)c1C | 13.6% |
| CC(C)N(Cc1ccccc1)C(=O)COC(=O)c1ccc2c(c1)OCCO2 | 11.4% |
| Cn1ccc(=S)c2ccccc21 | 11.9% |
| O=S(=O)(c1ccc(SCCOc2ccc(Cl)cc2)nc1)N1CCCC1 | -4.08% |
| CC(C)n1c(O)c(C=NCc2cccnc2)c(=O)[nH]c1=S | 7.59% |
| Cc1c(Nc2nc3ccccc3nc2NS(=O)(=O)c2cccc(Cl)c2)c(=O)n(-c2ccccc2)n1C | 3.99% |
| CCN(C(=O)CCCC(=O)N(CC)c1ccccc1)c1ccccc1 | 18.4% |
| C=CCn1c(SCC(N)=O)nnc1-c1cc(Br)ccc1O | -2.7% |
| COC(=O)CCCC(=O)N1CCCC(CNS(=O)(=O)c2ccc(OC)cc2)C1 (stereo not shown) | 10.8% |
| Cc1ccccc1CS(=O)(=O)CCC(=O)O | 5.18% |
| O=C(NCCCl)Nc1ccccc1OCCOc1ccccc1NC(=O)NCCCl | -0.97% |
| COc1ccc(OCC(O)Cn2c(Nc3ccccc3)nc3c2c(=O)n(C)c(=O)n3C)cc1 (stereo not shown) | 6.41% |
